Results as given in ChEMBL document CHEMBL4888484, “Replenishing the malaria drug discovery pipeline: Screening and hit evaluation of the MMV Hit Generation Library 1 (HGL1) against asexual blood stage Plasmodium falciparum ,using a nano luciferase reporter read-out” (2022).
The campaign covered roughly 150,000 compounds. About 540 (0.36%) showed an effect of 50% or more. The list shows a part of the results.

What follows are molecules tested on Plasmodium falciparum (assay: Primary screen in NF54 nanoGlo assay, in single point, at 2uM, 72h; a lower Z score goes with more inhibition). Settings: timepoint 72 hour.
Format: functional, Erythrocyte

SMILES	% Inhibition	Z score
CC(C)(C)OC(=O)NC1CCN(C(=O)C[C@@H](Cn2cnnn2)c2ccc(Cl)cc2)CC1	-6%	0.84
CN(C)S(=O)(=O)CC(=O)N1C[C@H](c2ccccc2)c2ccccc21	-17%	1.55
COC1(C)CCN(C(=O)c2ccon2)CC1	-4%	0.52
Cc1nc(NC(=O)[C@@H](C)C(F)(F)F)n[nH]1	-6%	1.28
CS(=O)(=O)NCCN1CCC(F)(F)CC1	5%	-0.73
Cc1ccc(C2(C)CC(=O)N(CC3CCNC(=O)CC3)C2=O)cc1 (stereo unspecified)	10%	-1.32
COc1ccc(CNC(=O)c2noc3c2C[C@@H](C)CC3)cc1	1%	-0.13
CCO[C@H]1CCCN(C(=O)Cn2ncc(=O)c3ccccc32)C1	-2%	0.3
CCc1nocc1CN(C)C(=O)c1ccc2[nH]c3c(c2c1)CCCC3	9%	-1.13
Cc1nc(CN[C@H]2CC(=O)N(c3ccccc3)C2)cs1	-18%	3.66
Cc1cccc2[nH]c([C@H]3CCCN(C(=O)CCc4cccnc4)C3)nc12	-14%	1.72
Cn1c(=O)c2c(ncn2CC(=O)OCc2ccccc2C#N)n(C)c1=O	1%	-0.08
Cc1cc(C)nc(-n2nc(C)c(CCc3ccccc3)c2O)n1	32%	-3.67
NCc1nc(C(=O)N(CCc2ccc(F)cc2)C2CCCC2)cs1	-14%	1.54
CC1CCC(NC(=O)CCOCC(F)F)CC1C (stereo unspecified)	3%	-0.3
CC(C)NC(=O)OC1CN(C(=O)[C@@H]2CCCc3nccn32)C1	0%	0.08
Cc1ccccc1CC(=O)N1CCC[C@@](F)(C(=O)NCC2CC2)C1	-22%	1.92
C[C@@H](C(=O)NCCS(=O)(=O)N(C)C)n1cc(Cl)cn1	-7%	1.13
C[C@H]1CN(Cc2cn(C)c(=O)n(C)c2=O)c2ccccc21	-1%	0.18
CCn1nc(C)cc1C(=O)Nc1ccccc1-n1ccc(C(N)=O)n1	-3%	0.5
CCCc1cc(C(=O)N[C@H](c2ncccc2C)C2CC2)[nH]n1	3%	-0.51
Cn1c(CS(=O)(=O)c2ccccc2)c(C#N)c2ccccc21	-1%	0.26
CN(Cc1cccnc1)c1nc2c(c(=O)[nH]1)Cc1ccccc1OC2	1%	-0.19
CCc1ccc(O)c(C(=O)N2CCC(C(=O)Nc3nc(C)cs3)CC2)c1	-9%	0.85
Cc1c(CN(C)C(=O)c2ccc(-c3ccc4c(c3)OCC4)cc2)cnn1C	-20%	2.12
CC1(c2nnc(-c3ccc4ccccc4n3)o2)CCOCC1	-4%	0.63
COc1ccccc1C1=NS(=O)(=O)N(C)C(C(=O)N2C(C)CCCC2C)=C1 (stereo unspecified)	-5%	0.99

SMILES	% Inhibition	Z score
O=C(NCc1cncc(C2CC2)c1)c1ccc2ccccc2n1	-5%	0.77
Cc1ccc(-c2noc(-c3sccc3NC(=O)c3ccccc3F)n2)cc1	7%	-0.73
CC(O)C1CCN(C(=O)NCCCc2cc(F)cc(F)c2)C1 (stereo unspecified)	1%	-0.07
Cc1cc2c(cc1S(=O)(=O)N(Cc1ccccc1)C(C)C)OCC(=O)N2Cc1noc(C2CC2)n1	-2%	0.29
CC(C)CCC1(C2CCN(C(=O)[C@H]3C[C@@H]4C=C[C@H]3C4)CC2)NC(=O)N(CCN(C)C)C1=O (stereo partly specified)	-5%	0.61
O=C(CCc1ccccc1)N1CCC2(CC1)C[C@@H](N(Cc1ccccc1)C1CC1)CCO2	-11%	1.41
CCc1nc(C(=O)N[C@H]2CCOC2(C)C)nn1-c1ccccc1	-3%	0.42
CC1CCCCC1NC(=O)C1CCN(C(=O)N2CCOc3ccc(Cl)cc32)CC1 (stereo unspecified)	2%	-0.45
COCCNC(=O)c1nc(-c2nc(-c3ccc4c(c3)OCO4)no2)cs1	1%	-0.17
CC(O)(CN1CCN(C(C#N)c2ccccc2)CC1)C(F)(F)F (stereo unspecified)	-2%	0.26
CCOc1ccccc1NC(=O)N1Cc2cncnc2C1	-6%	0.77
Cc1ncc(C(=O)NCc2cc(Cl)cc3c(C)c(-c4ccccc4)[nH]c23)cn1	-15%	1.39
COc1cc2cc(CNCc3cn(C)nc3C)c(=O)n(CC3CCCCC3)c2cc1OC	-7%	0.98
CC(=O)N1CCN(C(=O)C[C@@H]2c3nc(NC(=O)c4ccc(F)cc4)sc3C[C@@H]3[C@](C)(CO)[C@H](O)CC[C@]32C)CC1	6%	-0.89
O=C(COc1ccc(Cl)c(Cl)c1)N(C1CCCCC1)[C@H]1CCS(=O)(=O)C1	-5%	0.8
CCC(NC(=O)N1CCCC(OC2CCC2)C1)C(F)F (stereo unspecified)	-25%	2.28
Cc1cccc(-c2nc3[nH]c(CN4CCN(c5ccc(F)cc5)CC4)cc(=O)n3n2)c1	12%	-1.44
CCCCc1nn(CC(=O)N2CCC[C@H](C)C2)c(=O)n1Cc1ccccc1	5%	-1.06
O=C(c1cccc(Cl)c1)N1CC[C@@]2(CCCN(CC3CC3)C2=O)C1	4%	-0.79
Cc1cc(Cl)ccc1C1=CCN(C(=O)Cc2nc(C3CC3)nn2C)CC1	9%	-1.41
CC(=O)Nc1cc(Br)c(O)c(Br)c1	-3%	0.44
C[C@H]1OCC[C@H]1NS(=O)(=O)c1cccc(Br)c1	-1%	0.1
Cc1nc(C)c(CN2CCC[C@H](n3ccc(C(F)(F)F)n3)C2)s1	-14%	1.61
c1cc([C@@H]2CCCCN2c2nc(C3CC3)ns2)n[nH]1	29%	-4.24
COC[C@@H]1CCCN1C(=O)NCc1nc2c(C)cccc2o1	-3%	0.46
Cc1ccc2nc(NCCN3CCOCC3)sc2c1	-15%	1.74
